Out of some 48,000 compounds screened, about 450 (0.94%) were called active. Not shown: some 19% with an inconclusive outcome. Calls come from the whole dose curve; as a rule, active = well fitted inhibition curve with a large enough effect; inconclusive = small, poorly fitted or top-dose-only effect; inactive = no such curve, though single readings can be large or run the other way. The list shows a part of the results.
Assay: Primary qHTS for Identification of Small Molecule Inhibitors of Huntingtin Promoter Activity; note: nearly all actives have a fitted effect of over 50% in size
Settings: HEK293 HTT promoter firefly luciferase reporter (activity 0% = vehicle and -100% = no light), 24 h; series mostly up to 57.5 µM; activity change, negative = inhibition: at the top concentration
Outline: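 HEK293 Fluc reporter, 2,500 cells/well, 24 h pre-culture; cpds up to 57.5 uM final, 24 h 37 degrees C; Dual-Glo, 10 min RT; normalized vehicle = 0%, zero RLU = -100%.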

Activity change, negative = inhibition, inactive:
CCC(=O)N1c2ccccc2CC1C(=O)NCCN1CCN(c2cc(Cl)ccc2C)CC1 (centres undefined) -26.4%
Cc1cc(C)cc(OCC(=O)N2CCC(c3nc4ccccc4o3)CC2)c1 -9.81%
COC(=O)c1ccccc1NC(=O)C(Cc1ccccc1)N1Cc2ccccc2C1=O (centres undefined) -13.3%
COc1ccc(C)cc1NC(=O)Cn1cc(S(=O)(=O)N2CCC(C)CC2)c2ccccc2c1=O -28.4%
CCOc1ccc(NC(=O)c2c(NCc3cc(OC)c(OC)cc3OC)sc3c2CCCC3)cc1 -30.5%
COc1ccc(NC(=O)Cn2c(-c3ccc(F)cc3)cc(C(C)=O)c2C)c(OC)c1 -17.5%
CC(=O)Nc1ccc(S(=O)(=O)NCC2CCC(C(=O)NCCc3ccc(C)cc3)CC2)cc1 (centres undefined) 5.95%
CC(=O)c1cccc(NC(=O)c2ccc3c(c2)N(Cc2ccc(C)cc2)CCS3)c1 -0.0438%
COc1ccc(CCNC(=O)Cn2c(=O)nc(-c3ccccc3)c3cc(Cl)ccc32)cc1OC -13.3%
N#C/C(=C\c1ccc(F)cc1)c1nc(-c2ccc(-c3ccccc3)cc2)cs1 14.8%
COCCCNc1nc2c(c(=O)[nH]c(=O)n2C)n1CC(O)COc1ccc(Cl)cc1 (centres undefined) -7.55%
Cc1cc(C)c2c(=O)c3c(oc2c1)C(=O)N(CCCOC(C)C)C3c1ccccc1F (centres undefined) -20.9%
CCOc1ccc(NC(=O)CSc2nc3c([nH]c4ccccc43)c(=O)n2-c2cc(C)cc(C)c2)cc1 -12.9%
Cc1cccc(N2CCN(C(=O)c3cnc4c(C)cccn4c3=O)CC2C)c1 (centres undefined) 5.03%
Cc1nc2c(-c3ccccc3)c(C)nn2c(C)c1CCC(=O)NCCc1ccccc1 -31%
NCCc1ccn[nH]1 1.02%
CCOC(=O)c1c(C)oc2c1cc(NS(=O)(=O)c1ccc(C)cc1)c1ccccc12 -20%
O=C(NC1CC(=O)N(c2ccc(Cl)cc2)C1)C1CCCC1 (centres undefined) 0.399%
COc1ccc(NC(=O)CSc2nc3c(oc4ccccc43)c(=O)n2-c2ccccc2)cc1OC -16.6%
CCC(C)NC(=O)c1ccc2c(c1)nc1n2CCCCC1 (centres undefined) 59.1%
CN1CCN(C(=O)c2ccc3c(c2)N(Cc2ccc(F)cc2)C(=O)c2ccccc2S3=O)CC1 (centres undefined) -11%
CC(C)(C)OC(=O)N1CCC(c2c(C(=O)NCc3ccccc3)cnn2-c2ccc(F)cc2)CC1 -23.5%
O=C(CSc1nc(-c2ccccc2)no1)N1CCN(c2ccccc2)CC1 3.81%
CCOc1ccccc1NC(=O)c1cc(S(=O)(=O)N2CCOCC2)cn1C -3.26%
CCN1CCc2c(sc(-n3cccc3)c2C(C)NC(=O)Nc2cc(Cl)c(OC)cc2OC)C1 (centres undefined) -15.9%
CC(C)Oc1ccc(NC(=O)c2cc3ccccc3o2)cc1 -24.7%
Cc1sc2c(c1C)c(=O)n(Cc1ccccc1)c(=O)n2CC(=O)N(C)c1ccccc1 -4.23%
CCCNC(=O)c1cnn2c(C(F)F)cc(-c3ccccc3)nc12 -17%
CC1(C)CC(=O)c2cc(-c3nc(-c4ccc(Cl)cc4)cs3)c(=O)[nH]c2C1 -1.97%
COc1ccc(-c2nc(Cn3c(=O)cc(-c4ccccc4)c4c(C)nn(C)c43)c(C)o2)cc1OC 11.6%
CC(=O)N1CCc2cc(Br)cc(S(=O)(=O)NCCc3ccc(Cl)cc3)c21 -8.66%
CC1=C(/C=C/C(C)=C/C=C/C(C)=C/C(=O)Nc2ccc(O)cc2)C(C)(C)CCC1 -17.4%
CC(=O)c1cccc(NC(=O)CCc2nc3cccnc3n2Cc2cccs2)c1 -21.8%
O=C(c1cccn1-c1nnc(N2CCCCC2)s1)N1CCN(c2ccc(Cl)cc2)CC1 -28.4%
COc1ccc(CCNc2nc3ccc(C)cc3n3cnnc23)cc1OC -1.99%
CCOC(=O)CSc1nc(-c2ccc(F)cc2)cc(C(F)(F)F)c1C#N -32%
Cc1cc(C)cc(NC(=O)C(CC(C)C)NC(=O)C2CCCCC2)c1 (centres undefined) -0.544%
CN(C)c1ccc(C(=O)Nc2c(C(=O)NC(C)(C)C)oc3ccccc23)cc1 -16.5%
CC(C)Oc1ccc(CNC(=O)c2ccc3nc(C(C)C)oc3c2)cc1 -2.9%
COc1ccc(-c2nc3scc(CCNS(=O)(=O)c4c(C)cc(C)cc4C)n3n2)cc1OC -7.46%
CCc1nn2c(=O)cc(COC(=O)c3ccc4c(c3)OCO4)nc2s1 -2.17%
Cc1cc(C)cc(C(=O)Nc2cccc(-c3nc4ncccc4o3)c2C)c1 13.1%
COc1ccccc1CNC(=O)CCCCn1c(=O)c2ccccc2n(Cc2ccccc2C)c1=O -30%
CC(C)(C)C1CCc2c(sc(NC(=O)c3ccccc3F)c2C(=O)NCc2ccco2)C1 (centres undefined) -31.7%
CC(=O)c1c(C)n(-c2ccc(Cl)cc2)c2ccc(OC(=O)COc3ccccc3)cc12 -23.5%
NC(=O)c1ncn([C@@H]2O[C@H](CO)[C@@H](O)[C@H]2O)c1N 0.972%
CC(=O)c1cccc(NC(=O)c2ccc(Cl)c(S(=O)(=O)N3CCOCC3)c2)c1 -22.4%
CCOC(=O)c1cc2c(=O)n3ccccc3nc2n(CCOC)c1=NC(=O)c1cc2ccccc2o1 -4.03%
c1ccc(N2CCN(Cc3nnc(-c4ccc5c(c4)OCO5)o3)CC2)cc1 -18.6%
CN(Cc1ccccc1)S(=O)(=O)c1nnc(NC(=O)c2ccccc2Cl)s1 -7.72%
COc1cccc(-c2ccc3c(N)c(C(=O)c4ccc(F)cc4)sc3n2)c1 17.8%
CC(NC(=O)CCCN1C(=O)CCn2nc(-c3cn(C)c4ccccc34)cc21)c1ccccc1 (centres undefined) -9.07%
NC(=O)c1ccc(-c2nc(-c3ccc4c(c3)OCO4)c(-c3ccccn3)[nH]2)cc1 -2.21%
CCOC(=O)c1c(C)oc2nc(C)nc(NCC3CCN(Cc4ccc(F)cc4)CC3)c12 0%
COc1ccc(CNc2ncnc3c2cnn3-c2ccc(Cl)cc2)cc1 -11.8%
O=C(Nc1ccc(Cl)c(-c2nc3ccccc3o2)c1)c1cccc2c(Cl)cccc12 -15.3%
Cc1ccc(CSC2=Nc3ccccc3C3=NC(CCC(=O)NCc4cccs4)C(=O)N23)c(C)c1 (centres undefined) -5.45%
COc1ccc(Nc2ccc3cc(S(=O)(=O)N4CCCC4)ccc3n2)cc1OC 9.34%
Fc1ccc(-c2nc3c4c(-c5ccccc5)c(-c5ccccc5)oc4ncn3n2)cc1 -16.7%
Cc1cc(N2CCN(C)CC2)nc2ccc(NC(=O)Nc3ccc(F)cc3F)cc12 53.7%
Cc1ccc(NS(=O)(=O)c2c(C)nc3sccn3c2=O)c(Cl)c1 -14.5%
Cc1ccc(-n2c(=O)c3c(c4cc(C)ccc4n3C)n(CC(=O)NCC3CCCO3)c2=O)cc1 (centres undefined) 9.94%
CCC(=O)O[C@H]1[C@H](O[C@@H]2[C@@H](C)[C@H](O[C@H]3C[C@@](C)(OC)[C@@H](O)[C@H](C)O3)[C@@H](C)C(=O)O[C@H](CC)[C@@](C)(O)[C@H](O)[C@@H](C)C(=O)[C@H](C)C[C@@]2(C)O)O[C@H](C)C[C@@H]1N(C)C -0.111%
COc1cc(Cl)c(NC(=O)CC(C)S(=O)(=O)c2cc3c(cc2C)NC(=O)CO3)c(OC)c1 (centres undefined) 0.115%
Cc1ccc(NC(=O)CSc2nncn3c2cc2sccc23)cc1F 5.95%
CCCCOC(=O)c1ccc(NC2=NS(=O)(=O)c3ccccc32)cc1 -10%
Cc1cccc(NC(=O)CCn2nc(C)c3c(C)n(-c4ccccc4)nc3c2=O)c1C -19.9%
Cc1ccc(-c2nc3n(n2)C(=O)CC(c2ccc(C)cc2)S3)cc1 (centres undefined) -0.25%
COc1ccc(S(=O)(=O)NCc2ccc3c(c2)CCN3C(C)=O)cc1OC -18.3%
Nc1ncnc2c1ncn2[C@@H]1O[C@H](COP(=O)(O)O)[C@@H](O)[C@H]1O 17%
Cc1ccc(NC(=O)CCS(=O)(=O)c2ccc3nc(C)sc3c2)c(C)c1 -3.78%
COc1ccccc1N1CCN(c2c(CN3CCCC3)c(=O)oc3ccccc23)CC1 -5.18%
O=C(Nc1ccc(Cl)c(Cl)c1)N(Cc1c[nH]c2ccccc12)C1CCCCC1 47.4%
CCOc1ccc(C(=O)Nc2ccc(NC(=O)c3ccccc3)cc2)cc1Br -1.85%
COC(=O)c1ccc([C@H]2Nc3ccc(S(=O)(=O)Nc4ccc(F)cc4)cc3[C@H]3C=CC[C@H]32)cc1 -19.1%
Cc1ccc(OCC(=O)N(Cc2nc(-c3ccccc3)no2)C(C)C)cc1C -27.1%
CN(C)c1ncc(C(=O)NCc2ccccc2Cl)cn1 -3.67%
CCOC(=O)CNC(=O)Nc1cc(C(=O)NCc2ccc(C(C)C)cc2)ccc1N1CCCC1 -31.6%
C[N+]12CCC(CC1)C(OC(=O)C(O)(c1ccccc1)c1ccccc1)C2 (centres undefined) -4.79%
Cc1cc(OCC(=O)Nc2sc3c(c2C#N)CCC(C)C3)ccc1Cl (centres undefined) -3.94%
Cc1ccc2[nH]c(=O)c3cc(C(=O)NCc4cccc(Cl)c4)sc3c2c1 -6.19%
COc1ccccc1-c1noc(CSc2nnc(-c3ccccc3)n2-c2ccc(C)c(C)c2)n1 -6%
CC(=O)c1ccc(NC(=O)CSc2nc(-c3ccccc3C)nc3c2c(=O)n(C)c(=O)n3C)cc1 -4.49%
O=C(CSc1ncc(-c2ccc(Cl)cc2)[nH]1)Nc1ccccc1F -22.1%
CCOc1ccc(C(=O)c2cn(Cc3cccc(OC)c3)c3cc4c(cc3c2=O)OCO4)cc1 -28.6%
C[N+]1(C)CCC(=C(c2ccccc2)c2ccccc2)CC1 8.31%
Cc1ccc2[nH]c(=O)c3cc(C(=O)NC4CCC(C)CC4)sc3c2c1 (centres undefined) 1.27%
CCCCN(C)C(=O)CSc1nc2ccccc2nc1Cc1ccc(C)cc1 -6.91%
COc1ccc(-n2c(=O)c3c4c(sc3n(C)c2=O)CN(C(C)=O)CC4)cc1 -13.4%
O=c1cc(-c2ccccc2)n2c(SCc3ccccc3Cl)nnc2[nH]1 -8.09%
COc1ccccc1C(=O)Nc1nnc2n1CCS2 54%
COc1cccc2c1cc1c(=O)n(CC(=O)NCc3ccco3)nc(C)n12 -15.1%
Cc1c(Cl)cccc1NC(=O)CSc1nc(=O)n(Cc2ccco2)c2c1CCC2 -37.6%
CCCCCNC(=O)C1CCC(Cn2c(=O)c3sccc3n(CC(=O)NCc3cccc(OC)c3OC)c2=O)CC1 (centres undefined) -15.5%
